Measurements reported in PubChem BioAssay AID1745853 (National Center for Advancing Translational Sciences (NCATS), 2022).
The other results are listed elsewhere or left out. Further columns of the screen follow, without active or inactive calls.

Tests used:
Experiment in all cases: Primary Screen for Target Class Profiling of Small Molecule Inhibitors of Methyltransferases
[1] = target: Glycine N-methyltransferase (Homo sapiens) (UniProt Q14749); settings: purified enzyme, MTase-Glo SAH luminescence; measured here: GNMT inhibition; at 40 µM; stronger effect = lower value
From the text: (§1) PI: Matthew D. Hall Ph.D. and Quinlin M. Hanson Ph.D.
(§2) National Center for Advancing Translational Sciences (NCATS)
(§3) National Institute of Health (NIH), Rockville, MD
(§4) Target class profiling (TCP) is a chemical biology approach amenable to investigating understudied biological targets. TCP is achieved by developing a generalizable assay platform and applying it to screen a curated set of compound libraries against representative members of a target class. Small molecule methyltransferases (SMMTase) are a subclass of methyltransferase that act on metabolites to modulate signaling pathways, metabolize xenobiotics, or balance the available methyl pool. We screened four curated libraries totaling 27,574 unique compounds against the SMMTases nicotinamide N-methyltransferase (NNMT), phenylethanolamine N-methyltransferase (PNMT), histamine N-methyltransferase (HNMT), glycine N-methyltransferase (GNMT), catechol O-methyltransferase (COMT), and guanidinoacetate N-methyltransferase (GAMT). The data generated by this TCP can be leveraged for informed tool molecule development. For example, in the associated publication we identified a chemotype of HNMT-selective inhibitors. Additionally, we identified a putative SMMTase-selective inhibitor with potential as a tool molecule for studying broader methyltransferase biology.
(§5) High-through put screening assays were developed at the National Center for Advancing Translational Science (NCATS) for the enzymes NNMT, PNMT, HNMT, GNMT, COMT, and GAMT. Enzymatic activity was measured as a function of SAM cofactor conversion using the MTase Glo kit (Promega) for all enzymes. All assays were performed in 1536-well format with substrates and SAM concentrations at KM values. Enzyme concentration and assay timing were optimized for 10-20% SAM conversion. Initial screening of 27,574 compounds was done as single-point assays using the highest compound concentration (40 uM). […] These compounds were replated in 11-point dose response and assayed against NNMT, PNMT, HNMT, GNMT, COMT, GAMT, and a counter-assay. The IC50 and efficacy (maximal response) values were determined for each dose-response curve. These values are also accounted for in the area under the curve (AUC) values.
(§6) PROTOCOL TABLE (as described by Inglese J, Shamu CE and Guy RK. 2007)
(§7) SEQUENCE No. (e.g., 1, 2, 3, etc.); […] (e.g., Cells, Incubation, Reagent, etc.); VALUE; DESCRIPTION.
(§8) 1; Reagent; 2 uL; SMMTase Enzyme (2x) in reaction buffer, columns 1- 48.
(§9) 2; Reagent; 1 uL; SAM (4x) in reaction buffer, columns 1-48.
(§10) 3; Controls; 23 nL; DMSO in column 4; sinefungin in DMSO (0 uM - 40 uM) in 7-point 1:2 dilution series (n = 2) in column 2.
(§11) 4; Compounds; 23 nL; Columns 5-48.
(§12) 5; Reagent; 1 uL; Substrate (4x) in reaction buffer, columns 2-48.
(§13) 6; Time; 20-30 min; Incubation.
(§14) 7; Reagent; 1 uL; MTase-Glo reagent (5X), columns 1-48.
(§15) 8; Time; 30 min; Incubation.
(§16) 9; Reagent; 5 uL; MTase-Glo Detection reagent, columns 1-48.
(§17) 10; Time; 30 min; Incubation, luminescence evolution.
(§18) 11; Detection; Luminescence; ViewLux uHTS Microplate Imager (PerkinElmer).
(§19) NOTES (numbers refer to Sequence numbers above)
(§20) 1, 2, 5. White Medium Binding Greiner 1536-well plates (Cat #789175-F, Greiner Bio-One, Monroe, NC); Reaction buffer: 50 mM Tris, pH 8.0, 3 mM MgCl2, 1 mM EDTA, 50 mM NaCl, 1 mM DTT, and 0.1 mg/mL BSA. Evaporation was prevented by covering assay plates with metal lids containing holes to allow gas diffusion.
(§21) 1. Six SMMTase were profiled: HNMT, GNMT, PNMT, COMT, NNMT, GAMT
(§22) 5. The corresponding substrate was used for each enzyme: HNMT - 5.3 uM Histamine; GNMT - >500 uM Glycine; PNMT - 16.2 uM Norephinephrine; COMT - 13.7 uM Norephinephrine; NNMT - 3.8 uM Nicotinamide; GAMT - 2.5 uM Guanidinoacetate.6, 8, 10. Room temperature
(§23) 6. Final reaction conditions: 10 nM COMT, 5 uM SAM, 15 uM norepinephrine, 50 mM Tris, pH 8.0, 3 mM MgCl2, 1 mM EDTA, 50 mM NaCl, 1 mM DTT, and 0.1 mg/mL BSA; refer to tables 2 and S1 for specific timing.
8. […]

[2] = target: Guanidinoacetate N-methyltransferase (Homo sapiens) (UniProt Q14353); settings: purified enzyme, MTase-Glo SAH luminescence; measured here: GAMT inhibition; at 40 µM; stronger effect = lower value
From the text: as §1, §2, §3, §4, §5, §6, §7, §8, §9, §10, §11, §12, §13, §14, §15, §16, §17, §18, §19, §20, §21, §22, §23
8. […]

[3] = target: Histamine N-methyltransferase (Homo sapiens) (UniProt P50135); settings: purified enzyme, MTase-Glo SAH luminescence; measured here: HNMT inhibition; at 40 µM; stronger effect = lower value
From the text: as §1, §2, §3, §4, §5, §6, §7, §8, §9, §10, §11, §12, §13, §14, §15, §16, §17, §18, §19, §20, §21, §22, §23
8. […]

[4] = target: Nicotinamide N-methyltransferase (Homo sapiens) (UniProt P40261); settings: purified enzyme, MTase-Glo SAH luminescence; measured here: NNMT inhibition; at 40 µM; stronger effect = lower value
From the text: as §1, §2, §3, §4, §5, §6, §7, §8, §9, §10, §11, §12, §13, §14, §15, §16, §17, §18, §19, §20, §21, §22, §23
8. […]

[5] = target: Phenylethanolamine N-methyltransferase (Homo sapiens) (UniProt P11086); settings: purified enzyme, MTase-Glo SAH luminescence; measured here: PNMT inhibition; at 40 µM; stronger effect = lower value
From the text: as §1, §2, §3, §4, §5, §6, §7, §8, §9, §10, §11, §12, §13, §14, §15, §16, §17, §18, §19, §20, §21, §22, §23
8. […]
% is set by controls: 0 for no effect and ±100 for the full control effect.

Row | Compound | activity change, negative = inhibition [1] [%] | activity change, negative = inhibition [2] [%] | activity change, negative = inhibition [3] [%] | activity change, negative = inhibition [4] [%] | activity change, negative = inhibition [5] [%]
1 | COc1ccc(-c2nnc3n2CCN(C(=O)c2ccc(Cl)nc2)C3)cc1 | -6.74 | 1.2 | 0.783 | -1.84 | -2.71
2 | Cc1ccc(CNC(=O)Cn2c(N3CCCCC3)nc(C)c(C)c2=O)cc1 | -1.05 | 2.94 | 2.47 | 3.31 | -6.96
3 | CCCCC1CCC(c2nc(-c3ccncc3)no2)CC1 (stereo not given) | -2.11 | -12.8 | -5.26 | -28.6 | -18.5
4 | Cc1ccc(CNC(=O)C2(C)Cn3nc(C(=O)NCCCc4ccccc4)cc3C(=O)N2C)cc1 (stereo not given) | 2.33 | 0 | -2.85 | 2.72 | 3.99
5 | CN(C)c1ccc(NC(=O)NS(=O)(=O)c2ccc(Cl)cc2)cc1 | -73.7 | -83.8 | -6.3 | -50.1 | -49.1
6 | Cc1ccc(CN2C(=O)c3nc4ccccc4n3CC2(C)C(=O)NCc2ccccc2)cc1 (stereo not given) | 3.95 | 2.21 | 7.04 | 11.7 | 2.42
7 | CC(C)CCC[C@@H](C)[C@H]1CC[C@H]2[C@@H]3CC=C4C[C@@H](OC(=O)NCCN(C)C)CC[C@]4(C)[C@H]3CC[C@]12C | -2.6 | 23.6 | 11.2 | 10.3 | 10.9
8 | CN1C(=O)c2cc(C(=O)N3CCCC3)nn2CC1(C)C(=O)NCc1ccc(F)cc1 (stereo not given) | 5 | 0 | -1.35 | 8.36 | 5.53
9 | COc1cc(C(=O)OC(COCCC(C)C)CN2CCOCC2)cc(OC)c1OC (stereo not given) | 3.43 | 3.48 | 11.2 | -5.74 | 4.39
10 | Cc1cccc(-c2nnn3c2nc(NCCC(C)C)c2ccccc23)c1 | -6.64 | 2.04 | -7.92 | -9.73 | -11.3
